Results taken from the supplement of paper PMC8183993.
Where a name gives a salt, the structure may show the parent alone. ± gives the standard deviation of the averaged measurements. The full ranking holds about 3,200 compounds; the median of “nuclei count (viability) relative to DMSO” is about 99, and the lowest 2% start at about 16. The list shows a part of the results.

Each compound was assayed on U2OS (assay: nuclei count (viability) relative to DMSO (% of DMSO); higher = more viable cells). Details: 10 µM; 24 h.
Experimental: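 Primary image-based screen in U2OS cells: compounds at 10 uM for 24 h, then a 1 h o-propargyl-puromycin (OPP) pulse, click labelling, and high-throughput microscopy. Mean cytoplasmic OPP intensity and nuclei count were normalised to DMSO wells within each plate (DMSO = 100) and averaged over triplicate plates.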
CC(C)(C)c1ccc(C(O)CCCN2CCC(C(O)(c3ccccc3)c3ccccc3)CC2)cc1 (centres undefined) [Terfenadine] was tested, and the nuclei count was 103. C=C1/C(=C\C=C2/CCC[C@]3(C)[C@@H]([C@H](C)/C=C/[C@H](C)C(C)C)CC[C@@H]23)C[C@@H](O)C[C@@H]1O [Doxercalciferol (Hectorol)] showed a nuclei count of 93.5. Work on C[C@H]1O[C@@H](Oc2c(-c3cc(O)c(O)c(O)c3)oc3cc(O)cc(O)c3c2=O)[C@@H](O)[C@@H](O)[C@@H]1O [Myricitrin (Myricitrine)] yielded a nuclei count of 102. Work on Cc1ccc2c(=O)c3cccc(CC(=O)O)c3oc2c1C yielded a nuclei count of 110. For Nc1ncnc2c1ncn2C1CCCO1 (centres undefined), the nuclei count was 95.9. Nc1ccn([C@@H]2O[C@H](CO)[C@@H](O)[C@@H]2O)c(=O)n1 [Cytarabine] gave a nuclei count of 56.2 ± 2. O=S1(=O)c2cccc3cccc(c23)N1CCCN1CCN(c2ccc(F)cc2)CC1 [Fananserin] was tested, and the nuclei count was 104. Cc1[nH]c2ccccc2c1CCNCc1ccc(/C=C/C(=O)NO)cc1 [Panobinostat] gave a nuclei count of 23.7. Compound Nc1ccc(S(=O)(=O)Nc2ccccn2)cc1 [Sulfapyridine] has a nuclei count of 108. In the case of O=C(O)[C@H]1O[C@@H](Oc2cc3oc(-c4ccccc4)cc(=O)c3c(O)c2O)[C@H](O)[C@@H](O)[C@@H]1O [Baicalin], the nuclei count is reported as 101. In the case of Cn1cc(-c2ccncc2)c(-c2ccc(OCc3ccc4ccccc4n3)cc2)n1, the nuclei count is reported as 98.3. Compound C[N+](C)(C)[C@@H](Cc1c[nH]c(=S)[nH]1)C(=O)[O-] [L-Ergothioneine] has a nuclei count of 99. Compound COC1CCN(C(=O)c2cc(Cc3n[nH]c(=O)c4ccccc34)ccc2F)CC1 has a nuclei count of 72.7. c1cncc(CN2CCC(n3ncc4c(N5CCOCC5)nc(-c5ccc6[nH]ccc6c5)nc43)CC2)c1 was tested, and the nuclei count was 64.3. Compound C=C(C)[C@@H](CC=C(C)C)C[C@@]12C[C@@H](CC=C(C)C)C(C)(C)[C@@](CC=C(C)C)(C(=O)C(C(=O)c3ccc(O)c(O)c3)=C1O)C2=O [Garcinol] has a nuclei count of 105. Work on O=C(O)c1c(Sc2ccccc2)c2cc(Cl)ccc2n1Cc1ccc(Cl)cc1 yielded a nuclei count of 97.3. COc1cc([C@@H]2c3cc4c(cc3[C@@H](O[C@@H]3O[C@@H]5CO[C@@H](c6cccs6)O[C@H]5[C@H](O)[C@H]3O)[C@H]3COC(=O)[C@H]23)OCO4)cc(OC)c1O [Teniposide (Vumon)] showed a nuclei count of 15.5. With O=c1[nH]cnc2c1ncn2[C@@H]1O[C@H](CO)[C@@H](O)[C@H]1O [Inosine] the nuclei count was 102. With CCOc1ccccc1OC(c1ccccc1)C1CNCCO1 (centres undefined) [Reboxetine mesylate] the nuclei count was 104 ± 4.2. For O=C1NC(=O)/C(=C/c2ccc3c(c2)OC(F)(F)O3)S1, the nuclei count was 109. CCCCOc1cc(CC2CNC(=O)N2)ccc1OC (centres undefined) showed a nuclei count of 100. Compound Nc1ccc(C(=O)Nc2cccc(-c3nc(N4CCOCC4)c4oc5ncccc5c4n3)c2)cn1 has a nuclei count of 60.6 ± 12. CN(C)CCCN1c2ccccc2Sc2ccc(Cl)cc21 [Chlorpromazine hydrochloride] was tested, and the nuclei count was 79.4. In the case of CN(CC[C@@H](Oc1ccc(-c2ccccc2)cc1)c1ccc(F)cc1)CC(=O)O [ALX 5407 hydrochloride], the nuclei count is reported as 94.2. In the case of O=C(NOCC(O)CO)c1cc(Br)c(F)c(F)c1Nc1ccc(I)cc1F (centres undefined), the nuclei count is reported as 86.1. Work on CN(C)CC(c1ccc(O)cc1)C1(O)CCCCC1 (centres undefined) [Desvenlafaxine Succinate] yielded a nuclei count of 102. COc1ccc(S(=O)(=O)N(CCO)c2ccccc2CN(C)C/C=C/c2ccc(Cl)cc2)cc1 [KN-93 Phosphate] showed a nuclei count of 98.4. Work on O=C(Nc1ccccc1Br)N[C@@H]1CCN(c2ccc(C(F)(F)F)cn2)C1 yielded a nuclei count of 98.7. CCOC(=O)[C@@](C)(N)Cc1ccc(O)c(O)c1 [Methyldopate hydrochloride] showed a nuclei count of 92.8. With O=C(c1ccccc1)c1ccc2n1CCC2C(=O)O (centres undefined) [Ketorolac tromethamine] the nuclei count was 90.6. COc1c(N2CCNC(C)C2)c(F)cc2c(=O)c(C(=O)O)cn(C3CC3)c12 (centres undefined) [Gatifloxacin] gave a nuclei count of 110. CNC(=O)[C@H]1O[C@@H](n2cnc3c(NCc4cccc(I)c4)nc(Cl)nc32)[C@H](O)[C@@H]1O was tested, and the nuclei count was 103. Work on CCN(CC)CCCC(C)Nc1nc(C)cc(Nc2ccc3nc(C)cc(N)c3c2)n1 (centres undefined) yielded a nuclei count of 99.44 ± 0.99. Work on O=C(C[S+]([O-])Cc1ccco1)NC/C=C\COc1cc(CN2CCCCC2)ccn1 (centres undefined) [Lafutidine] yielded a nuclei count of 102. O=[N+]([O-])c1cccc2c[nH]nc12 gave a nuclei count of 102. With C#CCC(Cc1cnc2nc(N)nc(N)c2n1)c1ccc(C(=O)N[C@@H](CCC(=O)O)C(=O)O)cc1 (some centres undefined) [Pralatrexate (Folotyn)] the nuclei count was 92. For CCN[C@@H]1C[C@H](N)[C@@H](O[C@H]2OC(CN)=CC[C@H]2N)[C@H](O)[C@H]1O[C@H]1OC[C@](C)(O)[C@H](NC)[C@H]1O [Netilmicin Sulfate], the nuclei count was 96.5. CC(C)(O)c1ccccc1CC[C@@H](SCC1(CC(=O)O)CC1)c1cccc(/C=C/c2ccc3ccc(Cl)cc3n2)c1 [Montelukast] gave a nuclei count of 109. Work on O=C1NC(=O)C(c2ccccc2)(c2ccccc2)N1 [Phenytoin] yielded a nuclei count of 103. With O=C1NC(=O)C(=Cc2ccc(-c3ccc(F)cc3)o2)S1 (stereo in doubt) the nuclei count was 98.6 ± 3.4. In the case of CN1Cc2c(N)cccc2C(c2ccccc2)C1 (centres undefined) [Nomifensine maleate], the nuclei count is reported as 102. For CN(C)C/C=C/C(=O)Nc1cc2c(Nc3ccc(F)c(Cl)c3)ncnc2cc1O[C@H]1CCOC1 [Afatinib (BIBW2992)], the nuclei count was 33.1. For OC[C@@H](O)[C@@H](O)[C@@H](O)CO [Ribitol (Adonitol)], the nuclei count was 105. Compound O=C(Nc1ccccc1)Nc1ccc(-c2ccc(C(=O)[C@@H]3CCC[C@H]3C(=O)O)cc2)cc1 has a nuclei count of 100. In the case of c1ccc(CNc2ncnc3nc[nH]c23)cc1 [Aminopurine, 6-benzyl], the nuclei count is reported as 104. COC(=O)Nc1nc2cc([S+]([O-])c3ccccc3)ccc2[nH]1 (centres undefined) [Oxfendazol] showed a nuclei count of 77.2. COC(=O)Nc1nc2cc([S+]([O-])c3ccccc3)ccc2[nH]1 (centres undefined) [Oxfendazole] showed a nuclei count of 82.4. NC1CCN(c2nc3c(cc2F)c(=O)c(C(=O)O)cn3-c2ccc(F)cc2F)C1 (centres undefined) [Tosufloxacin hydrochloride] was tested, and the nuclei count was 92. For COc1ccccc1OCC(O)COC(N)=O (centres undefined) [Methocarbamol], the nuclei count was 102.
